Source: the supplement of paper PMC3334620
Over roughly 33,000 sequences, “E-score (-0.5 to 0.5)” has its median near -0.016; the highest 2% begin near 0.32. Some of the results follow.

biological target: T1, Stp1 (UniProt B3LFK1); assay: PBM E-score (8-mer binding enrichment) (E-score (-0.5 to 0.5)); higher = stronger / more preferred TF binding; most listed sequences are background and not binding sites; details: protein concentration: 200 nM; construct: GST-full length
T1 sequence: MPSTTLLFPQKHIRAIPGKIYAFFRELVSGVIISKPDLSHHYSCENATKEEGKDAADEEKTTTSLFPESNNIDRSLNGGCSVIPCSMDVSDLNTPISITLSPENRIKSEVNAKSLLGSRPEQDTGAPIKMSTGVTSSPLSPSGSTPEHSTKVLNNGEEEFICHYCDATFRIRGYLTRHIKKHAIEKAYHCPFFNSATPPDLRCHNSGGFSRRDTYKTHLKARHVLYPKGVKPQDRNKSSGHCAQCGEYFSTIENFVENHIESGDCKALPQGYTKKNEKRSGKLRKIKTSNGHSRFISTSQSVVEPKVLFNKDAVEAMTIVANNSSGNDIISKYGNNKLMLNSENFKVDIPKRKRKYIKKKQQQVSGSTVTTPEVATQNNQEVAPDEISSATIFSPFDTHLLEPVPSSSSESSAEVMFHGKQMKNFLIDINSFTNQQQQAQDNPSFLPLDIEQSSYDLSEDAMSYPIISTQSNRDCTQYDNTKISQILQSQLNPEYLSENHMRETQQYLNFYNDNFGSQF
Method: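 Universal 'all 10-mer' protein binding microarrays (Agilent AMADID 015681) probed with GST-tagged S. cerevisiae TFs (full-length or DBD) made by in vitro transcription/translation (PURExpress), about 100-200 nM. Bound TF was detected with fluorescent anti-GST. Each ungapped 8-mer (which stands for itself and its reverse complement) is scored by the PBM enrichment score (E-score), a modified Wilcoxon-Mann-Whitney statistic from -0.5 to +0.5, computed with the Universal PBM Analysis Suite. Scale: above 0.35 generally sequence-specific binding.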

| Sequence | PBM E-score |
| --- | --- |
| CTGCCAGC | -0.204 |
| CGACTTCA | 0.0659 |
| ACACACTG | -0.0947 |
| ACAATACG | 0.182 |
| ACCATCGC | 0.115 |
| ACTTTTGA | 0.172 |
| AGAGATCG | -0.0111 |
| AACCGCTC | -0.05 |
| AGAAGCAA | 0.15 |
| CACAAGTA | -0.14 |
| CCCAACCG | -0.153 |
| AGGATTGG | -0.116 |
| CCGAGGAA | 0.00772 |
| ACGTGTCT | -0.0762 |
| GCCTCGCA | 0.244 |
| AATCCACT | 0.0601 |
| CTAAGGCC | 0.121 |
| CATGTAAG | 0.0893 |
| AAAAGAGA | -0.0234 |
| AATTATAC | 0.0912 |
| ACGGTAGA | -0.0955 |
| CGGATGAG | -0.185 |

| Sequence | PBM E-score |
| --- | --- |
| AGACAACG | 0.0214 |
| ATGCCGGG | -0.0642 |
| TCAGCTGA | -0.0803 |
| ACCATCCG | -0.144 |
| ACTTTGCG | -0.019 |
| ATGAGCAG | -0.0299 |
| ACCCATCG | -0.25 |
| CCTACACA | 0.0469 |
| CCACTTTA | -0.0965 |
| CCCTAACG | -0.0628 |
| AAACCGAA | -0.0599 |
| CCAAATTA | 0.0605 |
| GCGTGTTA | 0.0756 |
| AACATCCG | 0.0587 |
| GTTGCTTA | 0.0905 |
| CGAGTTTA | -0.0253 |
| AACTTTGC | 0.0511 |
| ACTTCATA | 0.14 |
| CACGGATA | 0.295 |
| ACAGTGCA | -0.101 |
| AAAGTGCC | 0.201 |
| CATTGTTC | 0.132 |

| Sequence | PBM E-score |
| --- | --- |
| GCTATTGA | -0.053 |
| AATAGCCG | 0.284 |
| GCGTGATA | 0.0872 |
| CAATGACC | -0.131 |
| ACACATAT | 0.158 |
| CACTAAGG | 0.0993 |
| CTGAGGTA | -0.0424 |
| GGCCCACC | -0.113 |
| ATCAATGA | 0.161 |
| AGACCCCT | -0.301 |
| ATTCTTGG | 0.147 |
| ATTAAACC | 0.00574 |
| ACGGGCCC | -0.192 |
| CGGACGAA | 0.183 |
| GGACTTGA | -0.279 |
| GCGCTCCA | -0.0886 |
| GACCCGCA | -0.066 |
| CCTACTCC | -0.156 |
| GAGGGGAA | -0.137 |
| ACGTACTA | -0.0376 |
| CGATTCTC | -0.0736 |
| CAGCGCGG | 0.211 |

| Sequence | PBM E-score |
| --- | --- |
| ATCGTCGC | 0.124 |
| CGACACTC | 0.00026 |
| GACAATAA | 0.186 |
| CTAGTAAC | -0.106 |
| ATCCTCCG | -0.299 |
| GAATCTCC | -0.122 |
| CCCTTCTC | -0.259 |
| CGCATCGC | -0.027 |
| CCGAAAGA | 0.00631 |
| CTTGTGTA | 0.0858 |
| ACCTCCTC | -0.155 |
| CCTACGAA | 0.08 |
| GAAGGTCA | -0.276 |
| CCGTTCAC | -0.043 |
| CACCGGTG | -0.262 |
| ATTGATGG | 0.00393 |
| CGACGGAG | -0.147 |
| CTCCACGA | -0.0671 |
| ATGCCTTG | 0.274 |
| CCAGGGCG | -0.0182 |
